Sequences with one replicate were seen in a single cluster, so their values are uncertain.
System: ATP
Test: switch fluorescence ratio, 500 uM ATP over buffer (Cy3 cluster intensity, sum of 5 cycles each) (fold (ratio)); higher = stronger signal-on switching upon ATP binding; sequences stand for … in TCGTCGGCAGCGTCAGATGTGTATAAGAGACAGTTTTTTTTTTTTTTTTTTTTTTTTT…TC
Details: aptamer strand: ATP DNA aptamer (quencher-CACCTGGGGGAGTATTGCGGAGGAAGG + anchor), 100 nM annealed; ATP concentration: 500 uM; one replicate
Procedure, shortened: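 After annealing to 100 nM quencher-labelled ATP aptamer, Cy3-labelled switching-strand clusters on a modified Illumina MiSeq flow-cell were imaged in selection buffer. A second image followed after 15 min with 500 uM ATP at 22 °C, and five such buffer/ATP cycles were done, each separated by NaOH stripping and re-annealing. The fluorescence ratio, averaged per switch-domain sequence, is summed target-cycle over summed buffer-cycle Cy3 intensity per cluster, with clusters outside 100-1000 RFU excluded.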
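Also: ATP exposure 15 min at 22 °C before imaging.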

Sequence | switch fluorescence ratio
GACGCATTCT | 2.78
GACGCCGCTT | 2.1
GACGCGGACT | 3.24
GACGCTCCGA | 1.11
GACGGACTGG | 1.07
GACGGCTAAA | 1.05
GACGGCTCTT | 1.08
GACGGGGGCC | 0.981
GACGGGTACT | 1.12
GACGGTGG | 0.957
GACGGTGT | 0.973
GACGTAGGAC | 1.93
GACGTATCTC | 1.05
GACGTCCCTT | 0.989
GACGTGACTG | 0.937
GACGTGATAG | 1.76
GACGTGTTGA | 0.984
GACGTTTATC | 1.06
GACGTTTGGC | 0.989
GACTAATGTT | 0.978
GACTACCTGC | 1.02
GACTACTCTG | 1.04
GACTAGAGCC | 1.08
GACTATTACT | 1.05
GACTCACGAG | 1.01

Sequence | switch fluorescence ratio
GACTCACTGT | 1.22
GACTCAGAGT | 0.999
GACTCAGCAG | 1.38
GACTCAGCCC | 1.33
GACTCGGTGA | 1.03
GACTCTTTAC | 1.53
GACTGCGAGA | 1.1
GACTGCTAAG | 1.15
GACTGCTAGT | 1.02
GACTGTATGG | 1.08
GACTGTTGGA | 0.922
GACTTAAT | 0.985
GACTTAATGA | 1.01
GACTTACGG | 1.03
GACTTATGTC | 0.991
GACTTCAGTG | 0.995
GAGAAAAGAG | 1.02
GAGAAACAGT | 1.03
GAGAAATGAG | 1.01
GAGAACAAC | 0.99
GAGAACACAG | 1.03
GAGAACATCG | 0.936
GAGAACATTC | 0.991
GAGAAGGCAG | 0.987
GAGAAGTACG | 1.05

Sequence | switch fluorescence ratio
GAGAAGTGAA | 1.01
GAGAAGTGGG | 1.01
GAGAAGTTAA | 1.01
GAGAATATT | 0.995
GAGACAACGT | 0.957
GAGACAAGTC | 0.932
GAGACAGATC | 1.03
GAGACCGTTT | 0.997
GAGACGCT | 1.01
GAGAGAGATT | 0.989
GAGAGCAGCA | 1.01
GAGAGCAGCG | 1.13
GAGAGCTGGG | 0.988
GAGAGGGT | 0.961
GAGAGTCGT | 0.972
GAGAGTCTCA | 1.01
GAGATAGGCG | 1.12
GAGATCAACG | 1.03
GAGATCTATT | 0.956
GAGATCTCCT | 1.02
GAGATGAACG | 1.03
GAGATTAATG | 0.997
GAGATTGTG | 0.998
GAGATTTCGT | 0.995
GAGCAAAACG | 1.69

Sequence | switch fluorescence ratio
GAGCAACGGT | 1.08
GAGCAAGGCG | 1.02
GAGCACCT | 1.13
GAGCAGCAAA | 0.996
GAGCAGGCGT | 0.961
GAGCAGGCTG | 0.975
GAGCATAAAT | 1.04
GAGCCATTCT | 0.994
GAGCCCACTC | 1.03
GAGCCGACTT | 0.952
GAGCCGATTT | 1.01
GAGCCGCCGG | 0.978
GAGCCGTAAA | 0.985
GAGCGCCGTG | 1.13
GAGCGCTCGT | 1.02
GAGCGCTGCT | 0.974
GAGCGTGTAG | 1.04
GAGCGTTATG | 1.03
GAGCGTTCGG | 0.921
GAGCTGAGTG | 1.01
GAGGAACGGT | 1.02
GAGGACCGCA | 1.29
GAGGACGTTC | 0.942
GAGGAGAGTT | 1.02
GAGGAGATGG | 1.01

Reference: the supplement of paper PMC10126150
